Results: the supplement of paper PMC10441789
Some of the results follow. Antibody binding of pooled human sera (four to six donors per pool; dilution not stated) to peptides of the Trypanosoma cruzi antigen TSSA on microarrays. Quantile-normalised fluorescence in arbitrary units, mean of duplicate arrays; higher = more binding. No active / inactive call. The uninfected pools are read here as the healthy donors of the same country. The strongest signals lie near the top of the scale (about 60,000).

Columns and labels:
Assay in all cases: antibody binding signal (normalised fluorescence) (arbitrary fluorescence units); higher = stronger serum antibody binding to peptide
[1] = tested on: pooled sera of chronic Chagas disease patients, Argentina
Description: (§1)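 Microarray of 15-residue peptides over residues 30-55 of Trypanosoma cruzi TSSAII, each with 1 to 10 substitutions at naturally variable positions, probed with one serum pool per country.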

[2] = tested on: pooled sera of chronic Chagas disease patients, Bolivia
Description: as §1

[3] = tested on: pooled sera of chronic Chagas disease patients, Brazil
Description: as §1

[4] = tested on: pooled sera of chronic Chagas disease patients, Colombia
Description: as §1

[5] = tested on: pooled sera of chronic Chagas disease patients, Mexico
Description: as §1

[6] = tested on: pooled sera of chronic Chagas disease patients, USA
Description: as §1

[7] = tested on: pooled sera of uninfected people, Argentina
Description: as §1

[8] = tested on: pooled sera of uninfected people, Bolivia
Description: as §1

[9] = tested on: pooled sera of uninfected people, Brazil
Description: as §1

[10] = tested on: pooled sera of uninfected people, Colombia
Description: as §1

[11] = tested on: pooled sera of uninfected people, Mexico
Description: as §1

[12] = tested on: pooled sera of uninfected people, USA
Description: as §1

Sequence	antibody binding signal [1]	antibody binding signal [2]	antibody binding signal [3]	antibody binding signal [4]	antibody binding signal [5]	antibody binding signal [6]	antibody binding signal [7]	antibody binding signal [8]	antibody binding signal [9]	antibody binding signal [10]	antibody binding signal [11]	antibody binding signal [12]
TENKTATGGTPSPPG	28300	1050	474	351	417	424	238	168	349	344	339	157
KAATGGAPSPPGASS	689	192	330	304	358	861	430	154	104	122	97.2	132
STPPSGKDKKAAAGG	21700	1350	2080	874	42900	1680	204	465	115	135	97.7	109
TPPSGKDKKAATGGA	1610	355	769	1150	27500	674	246	492	119	290	94.1	254
DNKAATGGTPSPPGA	406	1010	403	278	419	259	197	325	501	334	212	153
TEKKPATGEAPSPSG	46200	49800	46600	370	338	36800	708	463	462	262	296	587
TSSTPPSGTDKKTAT	33900	4840	33300	5290	37800	5250	396	103	146	147	729	170
DKKAATGGTPSPPGA	468	596	308	1170	669	1250	305	123	734	1090	97.4	161
TDNKAATGGTPSQSG	417	938	488	448	523	166	281	324	400	210	400	123
KKTATGETPSQPGAS	709	1330	23200	246	210	4380	374	417	114	153	237	422
SGTDNKTAAGGAPSP	240	490	41500	6180	609	667	256	678	1820	293	269	324
KEKKPAAGEAPSPPG	267	225	3990	157	148	10800	113	73.2	123	77.2	73.3	370
KEKKTATGEAPSQSG	6940	5020	9360	260	526	14800	188	75	218	81.2	110	93.2
SGTDNKPATGGTPSQ	4940	2120	43800	3200	668	574	223	1010	518	284	417	216
TPPSGTENKPAAGGA	48000	43400	52200	1740	5310	30800	9580	1730	1230	784	570	1030
GKENKPAAGGTPSPP	698	257	2280	1640	2020	5530	792	359	268	233	158	118
DNKAATGGTPSPSGA	476	1010	391	335	480	198	290	170	668	462	243	151
SGKDKKTAAGGAPSQ	375	347	457	4330	811	1030	107	155	144	216	96	119
TDNKAATGGTPSPSG	475	982	358	284	388	244	149	245	475	412	148	122
GTDKKAAAGGTPSPS	246	201	181	4270	382	1570	100	195	970	181	118	122
TDKKAAAGGAPSPSG	1340	290	271	5760	875	776	175	145	178	147	310	136
STPPSGKDNKPAAGG	20900	5170	27500	382	26200	16600	876	890	189	221	331	447
EKKPAAGETPSPSGA	2330	579	2160	481	312	2650	172	745	264	197	321	1140
TPPSGTDNKTAAGEA	33900	26300	42100	642	13300	7870	599	383	638	244	125	174
TPPSGKDKKTATGET	1710	635	2490	1140	23200	738	184	391	126	272	95.4	132
